The text below walks through data of PMC4336329 (PLoS ONE, 2015).

The campaign covered roughly 310,000 compounds. About 14,000 (4.5%) showed an effect of 50% or more. The effect is printed as a negative number. The list shows a part of the results.
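Also: peak tail current of the secondary pulse compared with the same well before compound.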

In this experiment the target is human ether-à-go-go-related gene (hERG) potassium channel (human, UniProt Q12809). Description: primary screen, population patch clamp on CHO cells stably expressing hERG.
human ether-à-go-go-related gene (hERG) potassium channel, sequence (Q12809 whole entry, looked up): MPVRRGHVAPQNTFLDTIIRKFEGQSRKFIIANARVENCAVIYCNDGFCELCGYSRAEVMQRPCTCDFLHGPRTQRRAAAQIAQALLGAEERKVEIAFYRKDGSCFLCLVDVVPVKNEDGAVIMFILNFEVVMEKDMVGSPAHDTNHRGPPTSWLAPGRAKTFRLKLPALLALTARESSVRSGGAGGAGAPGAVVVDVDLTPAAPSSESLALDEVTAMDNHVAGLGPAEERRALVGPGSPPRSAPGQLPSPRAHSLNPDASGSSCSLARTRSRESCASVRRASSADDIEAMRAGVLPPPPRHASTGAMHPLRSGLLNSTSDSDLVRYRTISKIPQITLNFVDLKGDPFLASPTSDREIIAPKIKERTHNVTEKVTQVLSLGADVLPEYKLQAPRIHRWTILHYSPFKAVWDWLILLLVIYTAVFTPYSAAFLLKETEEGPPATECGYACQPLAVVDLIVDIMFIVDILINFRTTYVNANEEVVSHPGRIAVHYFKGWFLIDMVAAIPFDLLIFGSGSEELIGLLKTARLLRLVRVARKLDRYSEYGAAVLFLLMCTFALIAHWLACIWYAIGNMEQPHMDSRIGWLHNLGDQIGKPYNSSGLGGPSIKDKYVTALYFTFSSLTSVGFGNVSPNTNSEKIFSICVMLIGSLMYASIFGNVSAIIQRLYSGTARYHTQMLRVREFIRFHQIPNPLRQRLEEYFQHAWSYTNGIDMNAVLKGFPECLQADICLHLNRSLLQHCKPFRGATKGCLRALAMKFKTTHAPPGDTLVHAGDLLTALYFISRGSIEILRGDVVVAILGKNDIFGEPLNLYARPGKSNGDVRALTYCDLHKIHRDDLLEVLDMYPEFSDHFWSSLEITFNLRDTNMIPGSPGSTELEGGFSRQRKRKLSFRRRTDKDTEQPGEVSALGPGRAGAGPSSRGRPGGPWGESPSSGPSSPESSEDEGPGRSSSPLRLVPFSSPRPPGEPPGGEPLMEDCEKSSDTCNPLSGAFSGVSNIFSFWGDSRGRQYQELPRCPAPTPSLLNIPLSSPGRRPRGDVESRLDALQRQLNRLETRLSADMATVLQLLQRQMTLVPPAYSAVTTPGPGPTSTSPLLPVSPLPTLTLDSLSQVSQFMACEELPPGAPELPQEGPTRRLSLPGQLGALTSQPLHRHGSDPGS
With `CCC1=NN2C(=N)/C(=C/c3ccc(OS(=O)(=O)c4ccccc4)c(OC)c3)C(=O)N=C2S1`, the “hERG current change (%, negative = inhibition) at 10uM” value was determined as 3.74%.

For `Cc1cc2n(n1)C(c1ccccc1Cl)Nc1ccccc1-2` (stereo not drawn), the “hERG current change (%, negative = inhibition) at 10uM” value was -11.3%.

Regarding `O=C(NCCc1ccccc1)NC(Cc1ccccc1)C(=O)O` (stereo not drawn), the “hERG current change (%, negative = inhibition) at 10uM” value is on record as 5.7%.

With `CC(C)(C)C1CCC(OC(=O)C[N+]2(C)CCCCC2)CC1.[I-]` (stereo not drawn), the “hERG current change (%, negative = inhibition) at 10uM” value is recorded as 23.1%.

In the case of `CNC(=S)N(CCc1ccc(OC)c(OC)c1)Cc1cc2c(C)cc(C)cc2[nH]c1=O`, the “hERG current change (%, negative = inhibition) at 10uM” value is recorded as -17.7%.

`O=C(CNC(=O)c1cccs1)NCC(=O)OCc1c(Cl)cccc1Cl`: the “hERG current change (%, negative = inhibition) at 10uM” value is -9.19%.

Turning to `COc1ccc(CC(=O)Nc2ccc(-c3noc(-c4ccccc4OC)n3)cc2)cc1`, the “hERG current change (%, negative = inhibition) at 10uM” value is -8.1%.

Turning to `Br.COc1cccc(C(=O)Cn2c(=N)n(C)c3ccccc32)c1`, the “hERG current change (%, negative = inhibition) at 10uM” value is on record as -27.2%.

For the compound `Cc1ccc(NC(=O)/C(C#N)=C/c2ccccc2C(F)(F)F)cc1`, the “hERG current change (%, negative = inhibition) at 10uM” value amounted to 14.4%.

As for `COc1cc(CCC(=O)Nc2nnc(-c3cccnc3)s2)cc(OC)c1OC`, the “hERG current change (%, negative = inhibition) at 10uM” value was -35.6%.

Consider `CN(C)S(=O)(=O)c1ccc(C(=O)Nc2ccccn2)cc1`, for which the “hERG current change (%, negative = inhibition) at 10uM” value is on record as -9.58%.

On to `COc1cccc(-n2cn[nH]c2=S)c1`, for which the “hERG current change (%, negative = inhibition) at 10uM” value is recorded as 19%.

With `N#Cc1nc(Cc2cccc3ccccc23)oc1NCC1CCCO1` (stereo not drawn), the “hERG current change (%, negative = inhibition) at 10uM” value is -17.3%.

With `Cc1cc(C)cc(OCC(=O)N/N=C/c2ccco2)c1`, the “hERG current change (%, negative = inhibition) at 10uM” value came out at 37.4%.

As to `N#Cc1ccccc1OCC(=O)NC(N)=O`, the “hERG current change (%, negative = inhibition) at 10uM” value was 8.51%.

Take `CC1Cc2ccccc2N1C(=O)CCn1c(=O)sc2ccccc21` (stereo not drawn): the “hERG current change (%, negative = inhibition) at 10uM” value is -6.66%.

Take `COc1ccc(N2CCN(S(=O)(=O)CCNC(=O)COc3ccc(Cl)cc3)CC2)cc1`: the “hERG current change (%, negative = inhibition) at 10uM” value was found to be 17.8%.

Turning to `Cc1cccc(C)c1N(CC(O)Cn1c2ccccc2c2ccccc21)S(C)(=O)=O` (stereo not drawn), the “hERG current change (%, negative = inhibition) at 10uM” value came to 18.6%.

Turning to `CCCCNc1c(-c2cccc(-c3ccc(OC)cc3)c2)nc2ccc(C)cn12.O=C(O)C(F)(F)F`, the “hERG current change (%, negative = inhibition) at 10uM” value came out at 0.506%.

With `CNNC(=S)NCCC1=CCCCC1`, the “hERG current change (%, negative = inhibition) at 10uM” value is listed as -4.39%.

On to `Cn1c(=O)c2c(ncn2CC(=O)N2CCCCCC2)n(C)c1=O`, for which the “hERG current change (%, negative = inhibition) at 10uM” value amounted to 17.3%.

As for `COc1ccc(C(=O)/C=C/Sc2nc3ccccc3o2)cc1`, the “hERG current change (%, negative = inhibition) at 10uM” value stood at 24.3%.

Take `COC(=O)c1cccc2c1-c1ccccc1/C2=N\NC(N)=O`: the “hERG current change (%, negative = inhibition) at 10uM” value was found to be 6.03%.

Turning to `COc1cc(OC)cc(-c2nc(SCC(=O)Nc3ccccc3F)n[nH]2)c1`, the “hERG current change (%, negative = inhibition) at 10uM” value is on record as 19%.

Regarding `COc1ccc(N(CC(=O)NCCc2ccc(OC)c(OC)c2)S(=O)(=O)c2c(C)noc2C)cc1`, the “hERG current change (%, negative = inhibition) at 10uM” value is given as 0.275%.

Consider `CN(C)c1ccc(/C=C(/NC(=O)c2ccccc2)C(=O)NCCCn2ccnc2)cc1`, for which the “hERG current change (%, negative = inhibition) at 10uM” value is 0.277%.

As for `CCN1CCC(Nc2ccnc3cc(Cl)ccc23)CC1`, the “hERG current change (%, negative = inhibition) at 10uM” value was -40.5%.

In the case of `O=C(Nc1cccc(Cl)c1)c1cccc(N2C(=O)C3CC=CCC3C2=O)c1` (stereo not drawn), the “hERG current change (%, negative = inhibition) at 10uM” value was -24.8%.

Take `CCN(CC)CCCNC(=O)c1cn(CC)c2ccc(S(=O)(=O)N3CCc4ccccc4C3)cc2c1=O`: the “hERG current change (%, negative = inhibition) at 10uM” value is on record as -52.9%.

Consider `O=C(COc1ccc2ccccc2c1)Nc1nnc(-c2ccco2)s1`, for which the “hERG current change (%, negative = inhibition) at 10uM” value came to 7.18%.

`CC(=O)C1=C(C)NC(=S)NC1c1cc([N+](=O)[O-])ccc1O` (stereo not drawn): the “hERG current change (%, negative = inhibition) at 10uM” value is on record as -2.48%.

In the case of `CC(OC(=O)CC1CCCC1)C(=O)Nc1ccc(S(N)(=O)=O)cc1` (stereo not drawn), the “hERG current change (%, negative = inhibition) at 10uM” value is on record as -13.1%.

`Fc1ccc(CN(Cc2ccccc2)C(c2cccs2)c2nnnn2C2CCCCC2)cc1` (stereo not drawn): the “hERG current change (%, negative = inhibition) at 10uM” value was -1.36%.

Take `CSc1nnc(-c2sc3cc(Cl)ccc3c2Cl)n1C`: the “hERG current change (%, negative = inhibition) at 10uM” value was found to be 0.137%.

In the case of `COc1ccccc1NC(=O)N1CCN(S(C)(=O)=O)CC1`, the “hERG current change (%, negative = inhibition) at 10uM” value stood at 16.5%.

`Cc1ccc(NC(=O)COc2ccc3c(c2)OCO3)c(Cl)c1`: the “hERG current change (%, negative = inhibition) at 10uM” value is listed as 23.7%.

As to `COc1cc(NC(=O)C2CCCN2C(=O)C2CCC(C)CC2)cc(OC)c1OC` (stereo not drawn), the “hERG current change (%, negative = inhibition) at 10uM” value is recorded as -5.06%.

Regarding `Cc1ccccc1C(=O)Nc1ccc(N2CCN(C)CC2)nc1`, the “hERG current change (%, negative = inhibition) at 10uM” value was -1.6%.

`CCOc1ccc(C(=O)NC2CCN(C(=O)Nc3ccc(F)cc3)CC2)cc1`: the “hERG current change (%, negative = inhibition) at 10uM” value is listed as 0.481%.

For `CCC1(C)Cc2sc3c(=O)[nH]c(=S)[nH]c3c2CO1` (stereo not drawn), the “hERG current change (%, negative = inhibition) at 10uM” value was found to be 15.6%.

As for `c1cnc(Sc2ccc3nnnn3n2)nc1`, the “hERG current change (%, negative = inhibition) at 10uM” value is -56.4%.

Turning to `Cn1c2ccccc2c(=O)c2ccc(F)cc21`, the “hERG current change (%, negative = inhibition) at 10uM” value is given as 0.557%.

Turning to `CCOc1ccc(CCNC(=O)COC(=O)c2cc(OC)c(OC)cc2[N+](=O)[O-])cc1OCC`, the “hERG current change (%, negative = inhibition) at 10uM” value was -9.31%.

Regarding `O=C1[C@@H]2Cc3c([nH]c4ccccc34)C(c3ccc([N+](=O)[O-])cc3)N2C(=O)CN1C1CC1` (stereo partly drawn), the “hERG current change (%, negative = inhibition) at 10uM” value is -25.2%.

In the case of `O=[N+]([O-])c1nn(-c2ccccc2)[n+]([O-])c1N1CCN(c2ccccc2F)CC1`, the “hERG current change (%, negative = inhibition) at 10uM” value is recorded as 16%.

In the case of `Cc1nc(N2CCN(c3ccccn3)CC2)c2c(C)c(C(=O)N3CCN(c4ccccc4F)CC3)sc2n1`, the “hERG current change (%, negative = inhibition) at 10uM” value came out at 11.8%.

For the compound `Cc1cc(-c2nnc(SCc3ccccn3)o2)no1`, the “hERG current change (%, negative = inhibition) at 10uM” value is 7.86%.

On to `CCOC(=O)C1=C(C)Nc2ccccc2N/C1=N\S(=O)(=O)c1ccc(Cl)cc1`, for which the “hERG current change (%, negative = inhibition) at 10uM” value is on record as -7.32%.

For `Cc1ccc(NC(=O)CCNC(=O)c2ccc(Cl)cc2)cc1C`, the “hERG current change (%, negative = inhibition) at 10uM” value is 6.53%.

For `CSc1cccc(NS(=O)(=O)c2cccs2)c1`, the “hERG current change (%, negative = inhibition) at 10uM” value is recorded as -1.95%.

As to `O=C(Nn1c(-c2ccccc2)nc2ccccc2c1=O)c1cccs1`, the “hERG current change (%, negative = inhibition) at 10uM” value stood at 8.42%.

`O=C(O)/C(=C\c1cccs1)Sc1nnc(-c2ccc(F)cc2)o1`: the “hERG current change (%, negative = inhibition) at 10uM” value amounted to 1.52%.

In the case of `COc1ccc(C(C)=O)cc1CSc1ccccn1`, the “hERG current change (%, negative = inhibition) at 10uM” value was found to be 4.16%.

Regarding `Cc1nn(-c2ccccc2)c(N)c1Sc1ccccc1[N+](=O)[O-]`, the “hERG current change (%, negative = inhibition) at 10uM” value is given as -26.7%.

On to `Cc1ccc2[nH]c(=O)c(CNS(=O)(=O)c3ccccc3)c(-c3ccccc3)c2c1`, for which the “hERG current change (%, negative = inhibition) at 10uM” value is given as 16.2%.

As to `O=C(NC1CCCC1)C1CC1c1ccccc1` (stereo not drawn), the “hERG current change (%, negative = inhibition) at 10uM” value was -1.17%.

`CCOC(=O)CN1C(=O)C2(OCCCO2)c2cc(Br)ccc21`: the “hERG current change (%, negative = inhibition) at 10uM” value came out at 7.52%.
